Laboratory results as given in PubChem BioAssay AID1671194 (National Center for Advancing Translational Sciences (NCATS), 2021).
In all, about 140,000 compounds went through this assay and about 240 (0.17%) were called active. Inconclusive results, whose numbers are uncertain, are shown with a selection of clear calls. Calls follow the shape of the dose curve; as a rule, active = well fitted inhibition curve with a large enough effect; inconclusive = small, poorly fitted or top-dose-only effect; inactive = no such curve, though single readings can be large or run the other way. Potencies of inconclusive entries are doubtful fits and often do not repeat.

Experiment: Primary qHTS assay for inhibitors of alpha-synuclein gene (SNCA) expression; also: nearly all actives have a fitted effect of over 45% in size
Settings: HEK-293 SNCA-luciferase knock-in, luminescence, 24 h; series mostly up to 57.2 µM
Potency is read from the fitted curve at half-maximal effect; tags tell the direction and shape of the fitted curve.

Potency, inconclusive:
O=C(c1cnc2n1CCN(CCc1ccccc1)CC2)N1CCC(c2ccccc2)CC1 56.2 µM [inhibitor, single point], O=C(c1ccccc1Br)N(Cc1ccco1)Cc1ccco1 7.08 µM [inhibitor, single point], O=C(O)c1ccc(CC2CCN(C(=O)C3CC3)CC2)cc1 8.91 µM [inhibitor, single point], COc1ccc(CCN2CC(C(=O)N3CCC(CO)CC3)CCC2=O)cc1 (centres undefined) 25.1 µM [inhibitor, single point], CCOc1ccccc1NC(=O)CN(C)S(=O)(=O)c1ccc(C(=O)N2CCOCC2)s1 39.8 µM [inhibitor, single point], O=c1c(=O)n(-c2ccc(F)c(F)c2)ccn1Cc1ccc(F)cc1Cl 28.2 µM [inhibitor, single point], CC(C)CNC(=O)c1cn2cc(-c3ccc(C(F)(F)F)cc3)sc2n1 5.01 µM [inhibitor, single point], COc1ccc(CN2C[C@@H]3[C@H](C2)N(CC(C)C)C(=O)C(C)(C)[S+]3(=O)[O-])cc1O 7.94 µM [inhibitor, single point], CCOC(=O)C1=C(CN2CCN(c3ccccc3OC)CC2)NC(=O)NC1c1ccccc1 (centres undefined) 3.16 µM [inhibitor, single point], CCOc1ccc(CCNC(=O)c2oc(=O)c3ccccc3c2-c2ccc(C)cc2)cc1OCC 39.8 µM [inhibitor, single point], CC1Cc2ccccc2N1C(=O)CSc1nc2ccc(NC(=O)COc3ccccc3)cc2s1 (centres undefined) 39.8 µM [inhibitor, single point], Cc1ccc2c(CNCc3ccc(C)o3)c(C(=O)O)n(Cc3ccccc3C)c2c1 5.62 µM [inhibitor, partial curve, poor fit], O=C(c1nnn2cc(-c3ccc(F)cc3)[nH]c(=O)c12)N1CCOCC1 39.8 µM [inhibitor, single point], Cc1ccc(C)c(N2CCN(S(=O)(=O)c3ccc4c(c3)C(C(C)C)C(=O)N4)CC2)c1 (centres undefined) 15.8 µM [inhibitor, partial curve, poor fit], CCCc1ccc(OCC(=O)Nc2sc(C(=O)OCC)c(C)c2C(=O)OCC)cc1 39.8 µM [inhibitor, single point], OC1(c2csc(CN3CCOCC3)n2)CCN(CC2CCCCC2)CC1 28.2 µM [inhibitor, single point], O=C(NCc1ccccc1)N1CCC(O)(c2csc(CN3CC[C@@H](O)C3)n2)CC1 20 µM [inhibitor, partial curve, poor fit], COc1cccc(-c2nc(CS(=O)(=O)CC(=O)N3CCN(c4cc(C)ccc4C)CC3)c(C)o2)c1 31.6 µM [inhibitor, partial curve], CC[C@]1(O)C[C@H]2CN(CCC3=c4ccccc4=N[C]3[C@@](C(=O)OC)(c3cc4c(cc3OC)N(C)[C@H]3[C@@](O)(C(N)=O)[C@H](O)[C@]5(CC)C=CCN6CC[C@]43[C@@H]65)C2)C1 5.41 µM [inhibitor, full curve], COc1ccc(NC(=O)Cn2c(-c3ccccc3)nc(C)cc2=O)cc1 1.58 µM [inhibitor, single point], Cc1cc(C)c2c(CC(=O)Nc3ccc(S(=O)(=O)Nc4nc(C)cc(C)n4)cc3)coc2c1 15.8 µM [inhibitor, partial curve, poor fit], CC(=O)N1CCCc2cc(S(=O)(=O)N3CCCC(C(=O)N4CCN(c5ccccc5)CC4)C3)ccc21 (centres undefined) 15.8 µM [inhibitor, partial curve], Cc1ccc2c(c1)C(c1ccc(F)cc1)N(C(=O)c1ccc(S(=O)(=O)N3CCCCC3)cc1)CC(=O)N2 (centres undefined) 28.2 µM [inhibitor, partial curve, poor fit], CC1=C[C@@H](CNC(C)C)[C@H](C(C)C)C[C@H]1Cc1nnc(-c2ccc(N(C)C)cc2)o1 17.8 µM [inhibitor, partial curve, poor fit], COc1ccc(NC(=O)CCNS(=O)(=O)c2ccc3c(c2)CCCC(=O)N3)cc1Cl 39.8 µM [inhibitor, single point], Cc1nn(C(=O)CCC(=O)N2CCC(Cc3nncn3-c3ccccc3)CC2)c2ccccc12 11.2 µM [inhibitor, partial curve, poor fit], COc1cccc(-c2cccc(C(=O)N3CCCC3C(=O)NCc3ccc4c(c3)OCO4)c2)c1 (centres undefined) 39.8 µM [inhibitor, single point], CC(C)NC(=O)N1CCNc2cnc(Nc3cccc(C(F)(F)F)c3)nc2C1 56.2 µM [inhibitor, single point], COc1ccc(CCNC(=O)c2nc(-c3ccc(Cl)cc3)n3c2CCCCC3)c(OC)c1 17.8 µM [inhibitor, single point], O=C(NCc1ccc(Cl)cc1)c1cc2n(n1)CC(c1ccc3c(c1)OCO3)OC2 (centres undefined) 35.5 µM [inhibitor, single point], CC(C)c1nc2c(c(-c3ccc(Cl)cc3)n1)CCN(Cc1ccsc1)CC2 1.26 µM [inhibitor, full curve, poor fit], C[C@H]1CCCN1C(=O)c1nnc(COc2cccc(Cl)c2)n1-c1ccccc1 10 µM [inhibitor, full curve, poor fit], O=C(CCC1CCCC1)N1CCCC(CN2CCCC2)CC1 (centres undefined) 39.8 µM [inhibitor, single point], Cc1nc(CN2Cc3nc(OCc4ccc(F)cc4)ccc3OCC2=O)cs1 22.4 µM [inhibitor, partial curve, poor fit], CNC(=O)N1CCC(C2CCN(S(=O)(=O)c3ccc4c(c3)CCC4)C2)CC1 (centres undefined) 31.6 µM [inhibitor, single point], O=C(NC1CCCC1)c1cc2c(s1)CCN(C(=O)c1ccc(F)cc1)C2 5.01 µM [inhibitor, partial curve, poor fit], Cc1cccc(N2C(=O)CSC23C(=O)N(CC(=O)Nc2cccc(Cl)c2)c2ccccc23)c1 (centres undefined) 0.178 µM [inhibitor, full curve, poor fit], COc1cc(OC)cc(OCc2nc3c(n2Cc2ccccc2)C(=O)N(Cc2ccccc2F)CCN3)c1 28.2 µM [inhibitor, single point], COc1ccc(-c2cc(N3CCC(NC(=O)c4cccc(C)c4)C3)n[nH]2)cc1 (centres undefined) 7.08 µM [inhibitor, single point], Cc1cc2cccc(-c3nc(C4CCOC4)no3)c2o1 (centres undefined) 39.8 µM [inhibitor, single point], O=C(Cc1ccccc1F)NCCC1CCN(C(=O)Nc2ccc(F)cc2F)CC1 1.41 µM [inhibitor, full curve], CCOc1ccc(N2CC(c3nc4ccccc4n3CCCCOc3ccc(OC)cc3)CC2=O)cc1 (centres undefined) 39.8 µM [inhibitor, single point], COCCN1CCCC(c2[nH]ccc2C(=O)N2CCSCC2)C1 (centres undefined) 12.6 µM [inhibitor, partial curve]

Potency, inactive:
CC(=O)NCC(=O)N1CC[C@@H]2COCCN(Cc3ccccc3)[C@@H]2C1, O=C(NCC(F)F)c1nc2cccnc2n(Cc2ccccc2)c1=O, Cc1ccc(C)c(C(=O)NCc2nnc3c(-c4nc(C5CC5)no4)cccn23)c1, CC(C)C(=O)N1CCC(Cc2ccc(C(N)=O)cc2)CC1, CC(C)Cc1nc2nccc(-c3ccncc3)n2n1, CCCn1cc(C2CCN(S(=O)(=O)c3c(Cl)cccc3Cl)CC2)c2ccccc21, O=C(Nc1ccccc1)N1CCN(C(=O)c2nc3cccnc3n(CCc3ccccc3)c2=O)CC1, CC(C)CNC(=O)CCC[C@@H]1[C@H]2CCCN3CCC[C@@H](CN1C(=O)c1cccnc1)[C@@H]23, Cc1cc2cc(-c3c(C)noc3C)nc(-c3ccccc3)c2o1, O=C1COc2ccc(Oc3ccccc3)nc2CN1CCOc1ccccc1, CN1CCC(Cn2ccc3c(N4CCOCC4)nc(-c4cccc(N[S+](C)(=O)[O-])c4)cc32)CC1, COc1ccc(S(=O)(=O)Nc2c(C)nc3nc[nH]n3c2=O)cc1, Cc1nc2c(c(-c3ccc(O)cc3)n1)CN(C(=O)C1CCCC1)CC2, Cc1ccccc1C(=O)N1CCC(C(=O)N2CCC(N3CCOC3=O)CC2)CC1, Cc1ccc(C2(O)CCN(c3cc(C(F)(F)F)ccn3)CC2)nc1, COc1ccc(-c2cc(N3CCC(NC(=O)c4ccccc4F)CC3)n[nH]2)cc1, COCC(c1ccccn1)N(C)Cc1cn(-c2ccccc2)nn1 (centres undefined), COc1ccc(-c2cc(-c3ccncc3)c3cncn3c2)cc1, CS(=O)(=O)N1CCCC1Cc1noc(-c2ccccc2)n1 (centres undefined), COc1ccc(CN2CC3(CCN(C(=O)c4cn[nH]c4-c4ccc(F)cc4)CC3)C2=O)cc1, CCc1ccccc1NC(=O)N1CCC2(CC1)SCC(=O)N2Cc1ccco1
